Reference: PubChem BioAssay AID504832 (National Center for Advancing Translational Sciences (NCATS), 2011)
Hit rate of the full screen: of about 310,000 compounds, about 18,000 (5.8%) were called active. Inconclusive means that the source gave no clear call. Such entries were picked first, then a sample of the others. The call rests on the fitted dose curve; in most records, active means well fitted inhibition curve with a large enough effect; inconclusive means small, poorly fitted or top-dose-only effect, or another doubt; inactive means no such curve, though single readings can be large or run the other way. Potencies of inconclusive entries are left out as doubtful fits.

assay: Primary qHTS for delayed death inhibitors of the malarial parasite plastid, 48 hour incubation; settings: P. falciparum luciferase growth in erythrocytes; series mostly up to 28.7 µM
Summary of the method: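 Compounds are pin-transferred into medium, infected erythrocytes (2% hematocrit, 0.1% parasitemia final) are added, and plates sit one parasite generation at 37 C in 5% CO2. Detection reagent is then added and luminescence measured.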
Potency means the concentration at half of the fitted maximal effect; tags describe the fitted curve by direction and shape.

| SMILES | Potency |
| --- | --- |
| Cc1ccccc1Nc1c(N)c(=O)oc2ccccc12 | inconclusive [inhibitor, single point] |
| COc1ccc(C(c2c(NC(=O)c3ccccc3)sc(C)c2C)N2CCN(CCO)CC2)cc1 (stereo unspecified) | inconclusive [inhibitor, single point] |
| CCCN1C(=O)/C(=C\C=C2/Sc3ccccc3N2CC)SC1=S | inactive |
| CC1CCN(c2nc(-c3ccncc3)nc3ccccc23)CC1 | active: 4.15 µM |
| Cc1cc(=O)oc2cc(NC(=O)CCC(=O)O)ccc12 | inactive |
| COc1cc2cc(C(c3nnnn3C3CCCC3)N3CCCCCC3)c(=O)[nH]c2cc1OC (stereo unspecified) | inconclusive [inhibitor, single point] |
| CCOC(=O)C(=CNc1cc(Cl)c(-c2ccco2)c(Cl)c1)C(=O)OCC | active: 11.7 µM |
| O=C(/C=C/c1ccc(F)cc1)NCCc1ccc2c(c1)OCCO2 | inactive |
| O=S(=O)(NCC(c1cccnc1)N1CCN(c2ccccc2F)CC1)c1cccs1 (stereo unspecified) | active: 13.1 µM |
| C/C(=N/NC(=O)CNc1ccc(C)cc1)c1ccc(Br)s1 | inconclusive [inhibitor, single point] |
| Cc1cc(NC(=O)CSc2nnc(-c3cccnc3)n2Cc2ccccc2)no1 | inactive |
| COc1ccc(C(=O)NCCSCc2cccc(Cl)c2)cc1OC | inconclusive [inhibitor, full curve, poor fit] |
| COc1ccc(N(CC(=O)NCc2ccco2)S(=O)(=O)c2ccc(C)cc2)cc1 | inconclusive [inhibitor, partial curve] |
| CCOc1cc(/C=C2\NC(=O)NC2=O)ccc1OC(C)C(=O)O (stereo unspecified) | inactive |
| N#Cc1c(Nc2ccc(Cl)cc2)s[nH]c1=O | inactive |
| O=C(Oc1cccc(/C=N/Nc2nc(Nc3ccccc3)nc(N3CCOCC3)n2)c1)c1ccco1 | inconclusive [inhibitor, single point] |
| COc1ccc(CN(Cc2cccn2C)S(=O)(=O)c2ccc(F)cc2)cc1 | inconclusive [inhibitor, single point] |
| COc1ccc(Cn2c(C)nc3oc4cc(OC)ccc4c(=O)c3c2=O)cc1 | inconclusive [inhibitor, single point] |
| CN(c1ccccc1)S(=O)(=O)c1cccc(NC(=O)CSc2nnc(C3CC3)n2C)c1 | inconclusive [inhibitor, single point] |
| O=C(OCC(=O)c1c[nH]c2ccccc12)c1cc(S(=O)(=O)N2CCOCC2)ccc1F | inconclusive [inhibitor, partial curve] |
| Cc1ccc(Nc2nc(C(=O)NCC3CCCO3)cs2)cc1 (stereo unspecified) | inactive |
| CC(C)N1CCN(Cc2ccc3c(c2)OCCO3)CC1CCO (stereo unspecified) | inactive |
| CCCOc1ccc(C(=O)NC2CCSc3ccccc32)cc1 (stereo unspecified) | inconclusive [inhibitor, full curve, poor fit] |
| CCC(CC)C(=O)Nc1nnc(SCC(=O)NC(C)(C)C)s1 | inactive |

| SMILES | Potency |
| --- | --- |
| Cc1cccnc1NC(=O)c1ccc(Cl)c(S(=O)(=O)N2CCCCCC2)c1 | inconclusive [inhibitor, full curve] |
| O=C(c1cccnc1)c1cc2ccccc2[nH]1 | inactive |
| Cc1cccn2c(=O)c3cc(C(=O)NC4CCCCC4)n(C)c3nc12 | inconclusive [inhibitor, single point] |
| CC(c1ccccc1)C1CC(=O)N(c2ccccc2)C1=O (stereo unspecified) | inactive |
| COc1ccccc1C(=O)N/C(=C\c1cn(C)c2ccccc12)C(=O)NCCCn1ccnc1 | inconclusive [inhibitor, single point] |
| CCc1cc2c(=O)n(Cc3ccco3)c(SCC(=O)NCC3CCCO3)nc2s1 (stereo unspecified) | inconclusive [inhibitor, single point] |
| CCN(CC(=O)N1CCCCCC1)S(=O)(=O)c1ccc(Cl)cc1 | inconclusive [inhibitor, single point] |
| Cc1noc(C)c1COc1ccc(C(=O)Nc2cccnc2)cc1 | inactive |
| CCOC(=O)C1=C(C)N(C)C(=S)NC1c1cc(OC)ccc1OC (stereo unspecified) | inactive |
| COC(=O)Cc1nnc(SCC(=O)Nc2ccccc2)c2ccccc12 | inconclusive [inhibitor, single point] |
| CN(C)c1ccc(C=Nc2ccc(N(C)C)cc2)cc1 | inconclusive [inhibitor, partial curve, poor fit] |
| CCCOP(=O)(c1ccc(N(C)C)cc1)C(O)c1ccccc1OC (stereo unspecified) | inactive |
| N#Cc1cccc(NC(=O)Cn2c3[n+](c4ccc(C(F)(F)F)cc42)CCCCC3)c1 | active: 5.22 µM |
| NC(=O)c1ccccc1OCC(=O)c1ccc(Cl)cc1 | active: 4.15 µM |
| CO[C@H]1/C=C/O[C@@]2(C)Oc3c(C)c(O)c4c(O)c(c(C=NN5CCN(C)CC5)c(O)c4c3C2=O)NC(=O)/C(C)=C\C=C\[C@H](C)[C@H](O)[C@@H](C)[C@@H](O)[C@@H](C)[C@H](OC(C)=O)[C@@H]1C | active: 1.17 µM |
| [O-][N+]1=c2ccc(Nc3ccccc3)cc2=NC12CCCCC2 | active: 9.28 µM |
| CNC(=O)c1nnn(Cc2ccccc2)c1NC(=O)C(F)(F)F | inconclusive [inhibitor, partial curve, poor fit] |
| O=C1NC(Cc2ccccc2)c2nc3ccc(Cl)cc3c(=O)n2-c2cc(Cl)ccc21 (stereo unspecified) | inconclusive [inhibitor, single point] |
| COc1ccc2cc(/C=C/C(=O)N3CCN(CC(=O)N4CCCCCC4)CC3)ccc2c1 | active: 6.57 µM |
| COc1ccc2[nH]c(=O)c(CN(C(=O)c3ccco3)C(C)C)cc2c1 | inactive |
| CS(=O)(=O)c1ccc2nc(NC(=O)CC3CCCC3)sc2c1 | inconclusive [inhibitor, single point] |
| CC1(C)CC(=O)c2cc(C(=O)NC3CCSC3=O)c(=O)n(-c3ccccc3)c2C1 (stereo unspecified) | inconclusive [inhibitor, full curve, poor fit] |
| Cc1cc(C)cc(OCC(=O)Nc2ccc(N3CCN(C(=O)c4ccco4)CC3)cc2)c1 | inconclusive [inhibitor, single point] |
| O=C(Oc1c(Cl)cc(Cl)c2cccnc12)c1ccco1 | inconclusive [inhibitor, single point] |

| SMILES | Potency |
| --- | --- |
| COc1nc(OC)nc(N2CCC(C(=O)NCC3CCCCC3)CC2)n1 | inactive |
| Cc1noc(COc2ccccc2OCc2onc(C)c2Cl)c1Cl | inconclusive [inhibitor, single point] |
| CCc1sc(C(=O)Nc2ncccc2O)cc1C | inactive |
| COCCNC(=S)N(CCc1c(C)[nH]c2ccc(F)cc12)Cc1ccc(C)cc1 | inconclusive [inhibitor, single point] |
| O=C(NCC(c1ccc(F)cc1)N1CCOCC1)c1cccnc1Sc1ccccc1 (stereo unspecified) | inconclusive [inhibitor, single point] |
| Cc1cc(Cl)ccc1NC(=O)COC(=O)CCNS(=O)(=O)c1ccccc1 | inactive |
| O=c1c2ccccc2nc(SCc2nnc(-c3ccccc3)o2)n1-c1ccc(F)cc1F | inconclusive [inhibitor, single point] |
| COc1cc(NC(=O)N[C@@H](Cc2c[nH]c3ccccc23)C(=O)O)c(C(=O)O)cc1OC | inconclusive [inhibitor, full curve, poor fit] |
| O=C(N/N=C/c1cccnc1)c1ccc(NC(=O)c2ccc(Cl)cc2)cc1 | inconclusive [inhibitor, partial curve] |
| O=C(Nc1c2c(nn1-c1ccc(F)cc1)CS(=O)(=O)C2)C12CC3CC(CC(C3)C1)C2 | inconclusive [inhibitor, single point] |
| Cc1ccc(NC(=O)NC(=O)N(c2ccccc2)S(C)(=O)=O)cc1 | inactive |
| O=C(CCCSc1nc2ccccc2[nH]1)NCc1ccco1 | inconclusive [inhibitor, single point] |
| O=C(Nc1ccccc1N1CCOCC1)c1cccc(S(=O)(=O)Nc2ccccc2F)c1 | inconclusive [inhibitor, single point] |
| CC1(C)CC(=O)C2=C(C1)N(c1ccccc1)C(N)=C(C#N)C2c1cccnc1 (stereo unspecified) | inconclusive [inhibitor, full curve, poor fit] |
| CCCCCCCCNC1=CC(=O)CC(C)(C)C1 | inconclusive [inhibitor, single point] |
| O=C(CCc1nnc(Cc2ccc(-c3ccccc3)cc2)o1)NCCc1ccccn1 | inconclusive [inhibitor, partial curve] |
| O=C1N=C(N2CCOCC2)S/C1=C\c1cccs1 | inconclusive [inhibitor, partial curve, poor fit] |
| CC(=O)c1cccc(NC(=O)C2CC(=O)N(CCc3ccccc3)C2)c1 (stereo unspecified) | inactive |
| N#CC(c1ccccc1)C1CCN(Cc2ccccc2)CC1 (stereo unspecified) | inactive |
| COc1cc(CCC(=O)Nc2ccc(C)c(S(=O)(=O)N(C)C)c2)cc(OC)c1OC | inconclusive [inhibitor, partial curve] |
| O=C(CCCNC(=O)c1ccc(Cl)cc1)Nc1ccc(F)c(S(=O)(=O)N2CCOCC2)c1 | inconclusive [inhibitor, single point] |
| CC(=O)c1cc(C#N)c(SCC(=O)OC(C)C)nc1C | inconclusive [inhibitor, single point] |
| Cc1nc2cc(-c3ccccc3)nn2c(C)c1CCC(=O)N1CCC2(CC1)OCCO2 | inconclusive [inhibitor, partial curve] |
